Test results as given in PubChem BioAssay AID1345083 (National Center for Advancing Translational Sciences (NCATS), 2018).
Out of some 94,000 compounds screened, about 6,200 (6.6%) were called active. Inconclusive results, whose numbers are uncertain, are shown with a selection of clear calls. Calls follow the shape of the dose curve; as a rule, active = well fitted inhibition curve with a large enough effect; inconclusive = small, poorly fitted or top-dose-only effect; inactive = flat fitted curve, though single readings scatter. Potencies of inconclusive entries are doubtful fits and often do not repeat.

Assay: Cytotoxic Profiling in HEK 293 Cell Line of Diverse Libraries Using Quantitative High-Throughput Screening; also: nearly all actives have a fitted effect of over 60% in size
Details: HEK 293 viability, ATP luminescence (CellTiter-Glo), 48-72 h; series mostly up to 115 µM
Outline: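 250 HEK 293 cells/well; compound by pintool; incubated 48 or 72 hr at 37 degree Celsius; CellTiter-Glo added, 10 min RT, luminescence imaged.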
Potency is read from the fitted curve at half-maximal effect; tags tell the direction and shape of the fitted curve.

| SMILES | Potency |
| --- | --- |
| Cc1ccc2oc([C@H]3CCN(Cc4cccs4)C3)nc2c1 | active: 100 µM |
| O=C([C@H]1C[C@H](Oc2ccccc2)CN1S(=O)(=O)Cc1ccccc1)N1CCOCC1 | inactive |
| CCn1cc(-c2ccc(Cl)cc2)cc1C(=O)NCC(=O)OC | inactive |
| O=C(c1cc(-c2ccc(F)cc2)nc2ccccc12)N1CCC(c2nc(C3CCOCC3)no2)C1 (stereo not drawn) | inconclusive: 39.8 µM [inhibitor, partial curve, poor fit] |
| COc1cccc(CC(=O)N2CCCC(c3nc(C4CCOCC4)no3)C2)c1 (stereo not drawn) | inconclusive: 89.1 µM [inhibitor, single point] |
| O=C(c1ccc(Cl)cc1)N1CC2(CCN(Cc3ccccn3)C2)Cc2ccccc21 (stereo not drawn) | inconclusive: 56.2 µM [inhibitor, partial curve, poor fit] |
| COc1ccc(-c2noc(-c3cccn3CC(=O)Nc3cc(Cl)c(OC)cc3OC)n2)cc1F | inconclusive: 8.91 µM [inhibitor, full curve, poor fit] |
| CCC1(CC)CC1C(=O)N1CCC2(CC1)Nc1ccccc1NC2=O (stereo not drawn) | inconclusive: 50.1 µM [inhibitor, partial curve, poor fit] |
| COc1ccc(-c2noc([C@@H]3CCCN3C(=O)COc3ccc(C)cc3)n2)cc1 | inconclusive: 89.1 µM [inhibitor, single point] |
| CC(=O)N1CCC(C2CCN(S(=O)(=O)c3ccc(Cl)cc3C)C2)CC1 (stereo not drawn) | inconclusive: 50.1 µM [inhibitor, partial curve, poor fit] |
| COc1cccc(Cl)c1-c1nccc2c(=O)cc(-c3ccccn3)oc12 | inconclusive: 20 µM [inhibitor, full curve, poor fit] |
| CN1CC(=O)N(C2CCCC2)Cc2c(NCCc3ccc(Cl)cc3)ncnc21 | inconclusive: 50.1 µM [inhibitor, partial curve, poor fit] |
| CNC(=O)c1cc(C2CC2)nc2c1c(C1CCN(C(=O)c3cccnc3)CC1)nn2C | inactive |
| CCCN(C)c1nccnc1OC1CCN(C(=O)c2ccc(F)cc2)C1 (stereo not drawn) | inconclusive: 50.1 µM [inhibitor, partial curve, poor fit] |
| Cc1ccc(Nc2ccnc(N3CCCC3C(=O)N3CCN(C)CC3)n2)cc1 (stereo not drawn) | inactive |
| Cc1ccc2oc([C@H]3CCN(Cc4ccc(C(F)(F)F)cc4)C3)nc2c1 | inconclusive: 112 µM [inhibitor, partial curve] |
| Fc1ccccc1CN1CCOC[C@H]1c1ncc(-c2cccc(Cl)c2)[nH]1 | active: 79.4 µM |
| COc1ccc(Nc2cnc3ccc(-c4cccc(CO)c4)nn23)cn1 | inconclusive: 100 µM [inhibitor, partial curve, poor fit] |
| CC(C)CCN1C(=O)N(CCCc2ccncc2)C(=O)C12CCN(Cc1ccc(F)cc1)CC2 | inconclusive: 89.1 µM [inhibitor, single point] |
| O=C(Nc1cc(-c2ccncc2)nn1-c1ccccc1)c1ccccc1F | inconclusive: 79.4 µM [inhibitor, partial curve, poor fit] |
| O=C1CCN(CC(O)COc2ccccc2)c2ccc(F)cc2CN1C1CC1 (stereo not drawn) | inconclusive: 63.1 µM [inhibitor, partial curve, poor fit] |

| SMILES | Potency |
| --- | --- |
| O=C(N[C@H]1CCN2C(=O)[C@@H](Cc3c[nH]c4ccccc34)NC(=O)[C@H]12)c1ccccc1 | inactive |
| CCN1C(=O)C2(CCN(S(=O)(=O)c3cc(C)ccc3C)CC2)c2ccccc21 | inconclusive: 3.16 µM [inhibitor, full curve, poor fit] |
| CN(C)c1cccc(-c2cnc(NC(=O)c3ccncc3)c3c2CCO3)c1 | inconclusive: 11.2 µM [inhibitor, full curve] |
| O=C(NCc1ccccc1)c1ccc2nnc(-c3ccoc3)n2c1 | inactive |
| Cc1noc2c(NC(C)C)cc(-c3ccccc3)nc12 | inconclusive: 126 µM [inhibitor, partial curve] |
| O=C(NCc1cccc(C(F)(F)F)c1)c1cn2cc(-c3ccc(F)cc3)sc2n1 | inconclusive: 44.7 µM [inhibitor, full curve, poor fit] |
| CCOC(=O)CNC(=O)N1CCC(N2C(=O)C(OCC3CC3)C23CCCCC3)CC1 (stereo not drawn) | inconclusive: 39.8 µM [inhibitor, partial curve, poor fit] |
| O=C1CCN(C(=O)c2cccs2)[C@@H]2c3ccccc3OC[C@@H]2CN1CCO | inconclusive: 50.1 µM [inhibitor, partial curve, poor fit] |
| O=C(NCCc1cccc(Oc2ccccc2)c1)[C@H]1CCC[C@H](O)C1 | inconclusive: 31.6 µM [inhibitor, partial curve, poor fit] |
| O=C1NCCC[C@@H]1NC(=O)[C@H]1CN(C(=O)c2ccccc2)CCN1S(=O)(=O)c1ccc(F)cc1 | inactive |
| Cc1ccnn1CC(=O)N1CCOc2c(O)cc(-c3cccc(Cl)c3)cc2C1 | inconclusive: 89.1 µM [inhibitor, single point] |
| COC(=O)N1CCN(Cc2ccccc2-c2ccc(C)c(Cl)c2)CC1 | inconclusive: 63.1 µM [inhibitor, partial curve, poor fit] |
| CN(C)[C@@H]1CNCC[C@@H]1CO | inactive |
| Cn1cccc1C(=O)N1CC(c2noc(COc3ccccc3)n2)C1 | inconclusive: 79.4 µM [inhibitor, partial curve, poor fit] |
| COC(=O)c1ccc2nc(CO[C@H]3CN(Cc4ccccc4)C[C@H]3F)[nH]c2c1 | inconclusive: 112 µM [inhibitor, partial curve] |
| O=C(NCc1ccncc1)c1cc(CN2CCC(Cc3ccccc3)CC2)on1 | inconclusive: 50.1 µM [inhibitor, partial curve, poor fit] |
| CC(C)c1ccccc1OCC(=O)c1ccc2c(c1)N(CC(=O)N1CCOCC1)C(=O)CO2 | inconclusive: 79.4 µM [inhibitor, partial curve] |
| CCN1CCN(C(=O)c2cc(-c3ccc(C)cc3)cn2CC)CC1 | inconclusive: 79.4 µM [inhibitor, partial curve, poor fit] |
| CNC(=O)c1cc(C2CC2)nc2c1c(C1CCCN([S+](=O)([O-])c3ccccc3)C1)nn2C (stereo not drawn) | inconclusive: 79.4 µM [inhibitor, partial curve] |
| COc1ccc(OCC2CC3(CCCCC3)CN2S(=O)(=O)c2c(C)noc2C)cc1 (stereo not drawn) | active: 28.2 µM |
| c1ccc(C(CCNc2ncncn2)c2ccco2)cc1 (stereo not drawn) | inconclusive: 89.1 µM [inhibitor, single point] |

| SMILES | Potency |
| --- | --- |
| O=C(c1ccc(N2CC3CC(C2)[C@H]2CCCC(=O)N2C3)nc1)N1CCN(c2ccc(Cl)cc2)CC1 (stereo partly drawn) | inconclusive: 50.1 µM [inhibitor, partial curve, poor fit] |
| O=C1NCCCCCCN(CC2CCCCC2)[C@H]2CCC[C@@H]12 | inconclusive: 56.2 µM [inhibitor, partial curve, poor fit] |
| COCC1CN(C2CCC2)CC12CCN(C(=O)C1CCC1)CC2 (stereo not drawn) | inconclusive: 44.7 µM [inhibitor, partial curve] |
| O=C(C1CC1)N1CCN(Cc2ccccc2-c2cccnc2)CC1 | inconclusive: 126 µM [inhibitor, single point] |
| O=C(c1ccc(F)cc1)N1CCCC(C(=O)N2CCC(c3nc4ccncc4[nH]3)CC2)C1 (stereo not drawn) | inactive |
| O=C(CC1CCCCC1)N1CCC(c2n[nH]c(=O)n2-c2ccccc2)CC1 | inactive |
| COc1ccc(Cn2c(=O)c(-c3noc(C)n3)c3n(c2=O)CCCCC3)cc1 | inactive |
| CC(=O)Nc1cccc(OCc2nnc(C(=O)N3CCC[C@@H]3C(c3ccccc3)c3ccccc3)n2-c2ccccc2)c1 | inconclusive: 31.6 µM [inhibitor, full curve] |
| Cc1cc(C)cc(-c2ccc(CN3CCCC(NC(=O)C(C)C)C3)cc2)c1 (stereo not drawn) | inactive |
| COc1c[nH]c(CN2CCCC(Nc3ccc(C(C)C)cc3)C2)cc1=O (stereo not drawn) | inconclusive: 22.4 µM [inhibitor, full curve, poor fit] |
| COCCCN1C(=O)N(Cc2ccccc2)C(=O)C12CCN(Cc1cccs1)CC2 | inconclusive: 89.1 µM [inhibitor, single point] |
| CC(C)(Oc1nn(Cc2cccc(Cl)c2)c2ccccc12)C(=O)NC1CCOCC1 | active: 89.1 µM |
| O=C(c1cccs1)N1Cc2[nH]cnc2C[C@H]1c1nc(-c2ccc3ccccc3c2)no1 | inactive |
| COC(=O)c1ccc(COCC2=CC(C)(C)Oc3ccc(OC)cc32)cc1 | active: 35.5 µM |
| O=[S+]1([O-])NC2(CCN(Cc3cccc4ccccc34)C2)CNc2ccccc21 (stereo not drawn) | active: 39.8 µM |
| COc1ccc(-c2cccc(C(=O)NCCc3ccc(F)cc3)c2)nn1 | inconclusive: 44.7 µM [inhibitor, partial curve, poor fit] |
| COc1ccccc1N1CCN(C(=O)[C@@H]2Cc3c[nH]c4cccc(c34)[C@H](CC(C)C)N2)CC1 | inconclusive: 79.4 µM [inhibitor, partial curve] |
| COCc1ccc2c(c1)c(OC(C)(C)C(=O)NCC1CC1)nn2Cc1ccccc1 | inconclusive: 100 µM [inhibitor, partial curve] |
| O=C1COc2ccc(-c3cccc(O)c3)nc2CN1CCOc1ccccc1 | active: 100 µM |
| CCn1nccc1C(=O)NCC12CCCC=C1N(Cc1ccccc1)C(=O)CC2 (stereo not drawn) | inconclusive: 79.4 µM [inhibitor, partial curve, poor fit] |
| CC1Oc2ccc(NC(=O)c3ccc(F)cc3)cc2CN(Cc2ccc3c(c2)OCO3)C1=O (stereo not drawn) | inconclusive: 56.2 µM [inhibitor, partial curve, poor fit] |
